This sample is rich in variants without activity.
B1: TPR 5TU (parent)
chain: GGAUCUUCUCGAUCUAACAAAAAAGACAAAUCUGCCACAAAGCUUGAGAGCAUCUUCGGAUGCAGAGGCGGCAGCCUUCGGUGGCGCGAUAGCGCCAACGUUCUCAACUAUGACACGCAAAACGCGUGCUCCGUUGAAUGGAGUUUAUCAUG

Variants of: B1
Assay: polymerase ribozyme fitness, log enrichment relative to wild type (log ratio); higher = more active; in vitro selection for triplet polymerase activity
Outline: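 PCR was used to build mutant libraries for each subunit of a heterodimeric triplet polymerase ribozyme, which were then transcribed. A single in vitro selection round, in triplicate, used a frozen incubation at −7 °C and recovered extended constructs by gel excision, streptavidin beads and RT-PCR. Fitness is the logarithm of genotype enrichment relative to wild-type enrichment, averaged over replicates with inverse-variance weights. The logarithm is base 2, and after Illumina sequencing only genotypes with ≥10 input reads and ≥1 read per output were kept.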

| Variant | polymerase ribozyme fitness (log ratio) |
| --- | --- |
| GGAUCUUCUCGAUCUAACAAAAAAGACAAAUCUGCCACAAAGCUUGAGAGCAUCUUCGGAUGCAGAGGCGGCACCCUUCGGUGGCCCGAUAGCGCCAACGUUCUCACCUAUGACACGCAAAACGCGUGCUCCGUUGAAUGGAGUUUAUCAUG | ≤ -4.2 |
| GGAUCUUCUCGAUCUAACAAAAAAGACAAAUCUGCCACAAAGCUUGAGAGCAUCUUCGGAUGCAGAGGCGGCACCCUUCGCUGGCGCGAUAGCGCCAACGUUCUCAACUAUGACACGCAAAACGCGUGCUCCGUUGAAUGGAGUUUAUCAUG | -3.94 |
| GGAUCUUCUCGAUCUAACAAAAAAGACAAAUCUGCCACAAAGCUUGAGAGCAUCUUCGGAUGCAGAGGCGGCACCCUUCGGUAGCGCGAUAGCGCCAACGUUCUCCACUAUGACACGCAAAACGCGUGGUCCGUUGAAUGGCGUUUAUCAUG | ≤ -4.2 |
| GGAUCUUCUCGAUCUAACAAAAAAGACAAAUCUGCCACAAAGCUUGAGAGCAUCUUCGGAUGCAGAGGCGGCAGACUUCGGUGGCGCGAUGGCGCCAUCCUUCUCAACUAUGACACGCAAAACCCGUGCUCCGUUGAAUGGCGUUUAUCAUG | ≤ -4.2 |
| GGAUCUUCUCGAUCUAACAAAAAAGACAAAUCUGCCACAAAGCUUGAGAGCAUCUUCGGAUGCAGAGGCGGCAGACUUCGGUGGCGCGAUAGCGCGAACGUUCUCAUCUAUGACACGCAAAACGCGUGCUCCGUUGAAUGGUGUUUAUCAUG | ≤ -4.2 |
| GGAUCUUCUCGAUCUAACAAAAAAGACAAAUCUGCCACAAAGCUUGAGAGCAUCUUCGGAUGCAGAGGCGGCACCCUUCGGUGGCGCGAUAGCGCCAAUGUUCUCAACUAUGACACGCAAAACGCGUGCUCCGUUGAAUGGUGUUAAUCAUG | ≤ -4.2 |
| GGAUCUUCUCGAUCUAACAAAAAAGACAAAUCUGCCACAAAGCUUGAGAGCAUCUUCGGAUGCAGAGGCGGCAUCCUUCGGUGGCGCGAUAGCGCAAACGUUCUCAACUAUGACACGUAAAACGCGUGCUCCGUUGAAUGGAGUUUAUCAUG | -3.97 |
| GGAUCUUCUCGAUCUAACAAAAAAGACAAAUCUGCCACAAAGCUUGAGAGCAUCUUCGGAUGCAGAGGCGGCAGACUUCGGUGGCGUGAUAGCGCCAACGUUCUCAACUAUGCCACGCAAAACGCGUGCUCCGUUGAAUGGAGUUUAUCAUG | ≤ -4.2 |
| GGAUCUUCUCGAUCUAACAAAAAAGACAAAUCUGCCACAAAGCUUGAGAGCAUCUUCGGAUGCAGAGGCGGCAGACUUCGGUGGCGCGAUAGGGCCAACGUUCUCAACUAUGACACGCAAAACGCGUGCUCCGUUGAAUGCAGUUUAUCAUG | ≤ -4.2 |
| GGAUCUUCUCGAUCUAACAAAAAAGACAAAUCUGCCACAAAGCUUGAGAGCAUCUUCGGAUGCAGAGGCGGCACCCUUCGGUGGCGCGAUAGCGCUAACGUUCUCAACUAUGACACGCAAAACGCGUGGUCCGUUGAAUUGAGUUUACCAUG | ≤ -4.2 |
| GGAUCUUCUCGAUCUAACAAAAAAGACAAAUCUGCCACAAAGCUUGAGAGCAUCUUCGGAUGCAGAGGCGGCAUCCUUCGGUGGCGCGAUAGCGCCAACGUUCUCAGCUAUGACACGCAAAACGCGUGCUCCGAUGAAUGUAGUUUAUCAUG | ≤ -4.2 |
| GGAUCUUCUCGAUCUAACAAAAAAGACAAAUCUGCCACAAAGCUUGAGAGCAUCUUCGGAUGCAGAGGCGGCAGACUUCCGUGGCGCGAUAGCGCCAACGUUCUCAACUAUGACACGCAAAACGCGUGCUCCGUUGAAUGGAGUUUAUCAUG | ≤ -4.2 |
| GGAUCUUCUCGAUCUAACAAAAAAGACAAAUCUGCCACAAAGCUUGAGAGCAUCUUCGGAUGCAGAGGCGGCAGACUUCGGUGGCGCGGUUGCGCCAAGGUUCUCAACUAUAACACGCAAAACGCGUGCUCCGUUGAAUGGAGUUUAUCAUG | ≤ -4.2 |
| GGAUCUUCUCGAUCUAACAAAAAAGACAAAUCUGCCACAAAGCUUGAGAGCAUCUUCGGAUGCAGAGGCGGCAGACUUCGGUGGCGCGAUAGCGCUAACGUUCUCAACUAUGACACGCAAAACGCGUGCUCCGUUGAAUGGAGUUUAUCAUG | ≤ -4.2 |
| GGAUCUUCUCGAUCUAACAAAAAAGACAAAUCUGCCACAAAGCUUGAGAGCAUCUUCGGAUGCAGAGGCGGCAUCCUUCGGUGGCGCGAUAGCCCCAACGUUCUCAACUAUGACACGCAAAACGCGGGCUCCGUUGAAUGGAGUUUAUCGUG | ≤ -4.2 |
| GGAUCUUCUCGAUCUAACAAAAAAGACAAAUCUGCCACAAAGCUUGAGAGCAUCUUCGGAUGCAGAGGCGGCAUUCUUCGGUGCCGCGAUAGUGCCAACGUUCUCAACUAUGACACGCAAAACGCGUGCUCCGUUGAAUGAAGUUUAUCAUG | ≤ -4.2 |
| GGAUCUUCUCGAUCUAACAAAAAAGACAAAUCUGCCACAAAGCUUGAGAGCAUCUUCGGAUGCAGAGGCGGCAUCAUUCGGUGGCGCGAUAGCGCCAACGUUCUCAACUAUGACACGCAAAACGCGUGCUCCGUUGAAUGGAGUUUAUCAUG | ≤ -4.2 |
| GGAUCUUCUCGAUCUAACAAAAAAGACAAAUCUGCCACAAAGCUUGAGAGCAUCUUCGGAUGCAGAGGCGGCAUCCGUCGGUGGCGCGAUAGCGCCAACGUUCUCAACUAUGACACGCUAAACGCGUGCUCCGUAGAAUGGAGUUCAUCAUG | ≤ -4.2 |
| GGAUCUUCUCGAUCUAACAAAAAAGACAAAUCUGCCACAAAGCUUGAGAGCAUCUUCGGAUGCAGAGGCGGCAGACUUCGAUGGCGCGAUAGCGCCAACGUUCUCAACUAUGACACGCAAAACGCGUGCUCCGUUGAAUGGAGUUUAUCAUG | ≤ -4.2 |

Reference: the RNAGym collection of RNA variant scans (doi:10.1073/pnas.2313332121)
